8 molecules from PMC5015938, “A Split-Ubiquitin Based Strategy Selecting for Protein Complex-Interfering Mutations” (G3: Genes|Genomes|Genetics, 2016) can be followed below.

To fix the notation:
T1: Nub-Bem1 (Saccharomyces cerevisiae) (UniProt P29366)
T1 sequence: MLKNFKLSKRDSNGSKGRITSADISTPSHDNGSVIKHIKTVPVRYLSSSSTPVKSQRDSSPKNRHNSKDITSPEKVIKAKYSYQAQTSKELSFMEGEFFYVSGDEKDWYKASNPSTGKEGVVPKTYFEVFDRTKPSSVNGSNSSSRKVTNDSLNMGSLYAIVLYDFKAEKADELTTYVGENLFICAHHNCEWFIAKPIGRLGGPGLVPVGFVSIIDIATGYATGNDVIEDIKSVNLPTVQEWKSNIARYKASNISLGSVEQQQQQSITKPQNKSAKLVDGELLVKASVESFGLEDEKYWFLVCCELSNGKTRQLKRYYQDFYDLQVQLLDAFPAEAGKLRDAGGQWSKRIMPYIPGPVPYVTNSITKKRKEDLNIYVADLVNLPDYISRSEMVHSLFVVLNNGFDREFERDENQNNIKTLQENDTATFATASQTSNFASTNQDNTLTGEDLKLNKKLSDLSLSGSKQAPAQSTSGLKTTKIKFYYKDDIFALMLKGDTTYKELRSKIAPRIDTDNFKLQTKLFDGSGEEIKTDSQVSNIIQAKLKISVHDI

T2: PB_(Bem1)-SNAP (Saccharomyces cerevisiae) (UniProt P29366)
T2 sequence (chain, BG-Biotin covalently on the SNAP tag): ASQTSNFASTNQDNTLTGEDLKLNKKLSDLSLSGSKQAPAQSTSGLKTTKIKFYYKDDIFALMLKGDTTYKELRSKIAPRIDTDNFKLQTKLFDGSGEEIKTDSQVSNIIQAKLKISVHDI

B1: Cdc24_(428-854)-CRU (domain or fragment, UniProt P11433 428-854)
chain: SSDDNNTKELEAALDISKNIARSINENQRRTENHQVVKKLYGRVVNWKGYRISKFGELLYFDKVFISTTNSSSEPEREFEVYLFEKIIILFSEVVTKKSASSLILKKKSSTSASISASNITDNNGSPHHSYHKRHSNSSSSNNIHLSSSSAAAIIHSSTNSSDNNSNNSSSSSLFKLSANEPKLDLRGRIMIMNLNQIIPQNNRSLNITWESIKEQGNFLLKFKNEETRDNWSSCLQQLIHDLKNEQFKARHHSSTSTTSSTAKSSSMMSPTTTMNTPNHHNSRQTHDSMASFSSSHMKRVSDVLPKRRTTSSSFESEIKSISENFKNSIPESSILFRISYNNNSNNTSSSEIFTLLVEKVWNFDDLIMAINSKISNTHNNNISPITKIKYQDEDGDFVVLGSDEDWNVAKEMLAENNEKFLNIRLY
B2: Cdc24_(428-854)-CRU clone Round 4 M3 (domain or fragment, UniProt P11433 428-854)
chain: SSDDNNTKELEAALDISKNIARSINENQRRTENHQVVKKLYGRVVNWKGYRISKFGELLYFDKVFISTTNSSSEPEREFEVYLFEKIIILFSEVVTKKSASSLILKKKSSTSASISASNITDNNGSPHHSYHKRHSNSSSSNNIHLSSSSAAAIIHSSTNSSDNNSNNSSSSSLFKLSANEPKLDLRGRIMIMNLNQIIPQNNRSLNITWESIKEQGNFLLKFKNEETRDNWSSCLQQLIHDLKNEQFKARHHSSTSTTSSTAKSSSMMSPTTAMNTPNHHNSRQTHDSMASFSSSHMKRVSDVLPKRRTTSSSFESEIKSISENFKNSIPESSILFRISYNNNSNNTSSSEIFTLLVEKVWHFDDLIMAINSKIPNTHNNSISPITKIKYQDEDGDFVVLGSDEDWNVAKEMLAENNEKFLNIRLY
B3: Cdc24_(428-854)-CRU clone Round 4 M6 (domain or fragment, UniProt P11433 428-854)
chain: SSDDNNTKELEAALDISKNIARSINENQRRTENHQVVKKLYGRVVNWKGYRISKFGELLYFDKVFISTTNSSSEPEREFEVYLFEKIIILFSEVVTKKSASSLILKKKSSTSASISASNITDNNGSPHHSYHKRHSNSSSSNNIHLSSSSAAAIIHSSTNSSDNNSNNSSSSSLFKLSANEPKLDLRGRIMIMNLNQIIPQNNRSLNITWESIKEQGNFLLKFKNEETRDNWSSCLQQLIHDLKNEQFKARHHSSTSTTSSTAKSSSMMSPTTTMNTPNHHNSRQTHDSMASFSSSHMKRVSDVLPKWRTTSSSFESEIRSISENFKNSIPESSILFRISYNNNSNNTSSSEIFTLLVEKVWNFDDLRMAINSKIPNTHNNNISPITKIKDQDEDGDSVVLGSDEDWNVANEMLAENNEKFLNIRLY
B4: Cdc24_(428-854)-CRU clone Round 4 M2 (domain or fragment, UniProt P11433 428-854)
chain: SSDDNNTKELEAALDISKNIARSINENQRRTENHQVVKKLYGRVVNWKGYRISKFGELLYFDKVFISTTNSSSEPEREFEVYLFEKIIILFSEVVTKKSASSLILKKKSSTSASISASNITDNNGSPHHSYHKRHSNSSSSNNIHLSSSSAAAIIHSSTNSSDNNSNNSSSSSLFKLSANEPKLDLRGRIMIMNLNQIIPQNNRSLNITWESIKEQGNFLLKFKNEETRDNWSSCLQQLIHDLKNEQFKARHHSSTSTTSSTAKSSSMMSPTTTMNTPNHHNSRQTHDSMASFSSSHMKRVSDVLPKRRTTSSSFESEIKSISENFKNSIPESSILFRISYNNNSNNTSSSEIFTLLVEKIWNFDDLIMAINSKISNTHNNNISPITKIKYQDEDGDFVVLGSDEDWNVAKGMLAENNERFLNIRLY
B5: Cdc24_(428-854)-CRU clone Round 5 M1 (domain or fragment, UniProt P11433 428-854)
chain: SSDDNNTKELEAALDISKNIARSINENQRRTENHQVVKKLYGRVVNWKGYRISKFGELLYFDKVFISTTNSSSEPEREFEVYLFEKIIILFSEVVTKKSASSLILKKKSSTSASISASNITDNNGSPHHSYHKRHSNSSSSNNIHLSSSSAAAIIHSSTNSSDNNSNNSSSSSLFKLSANEPKLDLRGRIMIMNLNQIIPQNNRSLNITWESIKEQGNFLLKFKNEETRDNWSSCLQQLIHDLKNEQFKARHHSSTSTTSSTAKSSSMMSPTTTMNTPNHHNSRQTHDSMASFSSSHMKRVSDVLPKRRTTSSSSESEIKSISGNFKNPIPESSILFRISYNNNSNNTSSSEIFTLLVEKVWNLDDLIMAINSKISNTHNNNISPITKIKYQDEDGDFVVLGSDEDRNAAKETWAENNEKFLNIRLY
B6: Cdc24_(428-854)-CRU clone Round 4 M5 (domain or fragment, UniProt P11433 428-854)
chain: SSDDNNTKELEAALDISKNIARSINENQRRTENHQVVKKLYGRVVNWKGYRISKFGELLYFDKVFISTTNSSSEPEREFEVYLFEKIIILFSEVVTKKSASSLILKKKSSTSASISASNITDNNGSPHHSYHKRHSNSSSSNNIHLSSSSAAAIIHSSTNSSDNNSNNSSSSSLFKLSANEPKLDLRGRIMIMNLNQIIPQNNRSLNITWESIKEQGNFLLKFKNEETRDNWSSCLQQLIHDLKNEQFKARHHSSTSTTSSTAKSSSMMSPTTTMNTSNHHNSRQTHDSMASFSSSHMKRVSNVLPKRRTTSSSFEGEIKSISENFKNSIPESSILFRISCNNNSNNTSSSEIFTLLVEKVWNTDDLIMAINSKISNTHNNNISPITKIKYQDEDGDFVVLGSDEDWNVAKEMLAENNETFLNIRLY
B7: Cdc24_(428-854)-CRU clone Round 4 M4 (domain or fragment, UniProt P11433 428-854)
chain: SSDDNNTKELEAALDISKNIARSINENQRRTENHQVVKKLYGRVVNWKGYRISKFGELLYFDKVFISTTNSSSEPEREFEVYLFEKIIILFSEVVTKKSASSLILKKKSSTSASISASNITDNNGSPHHSYHKRHSNSSSSNNIHLSSSSAAAIIHSSTNSSDNNSNNSSSSSLFKLSANEPKLDLRGRIMIMNLNQIIPQNNRSLNITWESIKEQGNFLLKFKNEETRDNWSSCLQQLIHDLKNEQFKARHHSSTSTTSSTAKSSSMMSPTTTMNTPNHHNSRQTHDSMASFSSSHMKRVSDVLPKRRTTSSSFESEIKSISENFKNSIPESSILFRISYNNNSNNTSSSEIFTLLVEKVWNFDDLIMAINSKISNTHNNNISPITKIKYQDEDGDFVVLGRDEDRNVAKEMLAENNEKFLNIRLY
B8: PB_(Cdc24)(D833G) (domain or fragment, UniProt P11433 668-854)
chain: HDLKNEQFKARHHSSTSTTSSTAKSSSMMSPTTTMNTPNHHNSRQTHDSMASFSSSHMKRVSDVLPKRRTTSSSFESEIKSISENFKNSIPESSILFRISYNNNSNNTSSSEIFTLLVEKVWNFDDLIMAINSKISNTHNNNISPITKIKYQDEDGDFVVLGSDEGWNVAKEMLAENNEKFLNIRLY

Results are given in words; binding and its absence hold for the method and conditions named. For some assays here: In cells and extracts the contact can be indirect. Some binding calls cover weakened binding; strength is not graded here. Sequences can lack the tags named with a protein.

In one assay the target is T1, Nub-Bem1 (Saccharomyces cerevisiae). Nature of the assay: split reporter; manual split-ubiquitin assay in yeast JD53: Nub fusion and Cub-RUra3 (CRU) fusion coexpressed, serial dilutions spotted on medium lacking histidine and uracil with 50 µM CuSO4 and various Met concentrations (0 or 20 µM Met in Figure 3A), 2 d at 30°; interaction stops growth on SD ura-.
Consider B1, for which the binding result is listed as “binds”.
Still for that read-out and setting: under B2 stands “binds”.
For the molecule B3, the binding result is reported as “no binding”.
Still for that read-out and setting: for B4 the value was “binds”.
Same read-out and setting: for B5 the value was “no binding”.
Same read-out and setting: for B6 the value was “binds”; for B7, “no binding”.

The target in another assay is T2, PB_(Bem1)-SNAP (Saccharomyces cerevisiae). Nature of the assay: SPR; Biacore X100; PB_(Bem1)-SNAP labelled with BG-Biotin and captured on a CM5 chip coated with anti-biotin antibody; PB_(Cdc24) as analyte; HBSEP (10 mM HEPES, 150 mM NaCl, 3 mM EDTA, 0.05% Tween 20, pH 7.4); both purified. (In general: In SPR one partner is held on a chip, and binding of the other changes the refractive index at the surface.)
In the case of B8, the binding result is “no binding (tested: KD > 3.2 μM)”.
